Results on 79 compounds are retold here after ChEMBL document CHEMBL1201862, “PubChem BioAssay data set” (2004).

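A five-concentration, 48-hour dose response in 96-well plates underlies each endpoint, interpolated linearly between surrounding concentrations. At the GI50, growth is halved.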 Active and inactive are the calls of the source. Cut-off read from the data, not from the text of the source: active = GI50 up to about 1.1 µM and inactive = higher.

This assay relates to NCI-H322M. Description: NCI anticancer screen, dose series, 48 h.
Consider `O=C1Oc2ccccc2C(=O)/C1=C/N1C(=O)N/C(=C\c2ccccc2O)C1=O`, for which the GI50 was inactive: 50.9 µM.

Turning to `Cc1cc(S(=O)(=O)/N=C(\NN)Nc2ccc(Cl)cc2)c(S)cc1Cl`, the GI50 was inactive: 10 µM.

For `CCOC(=O)C(NC(=O)CC)(Nc1cc(C)on1)C(F)(F)F` (centres undefined), the GI50 was inactive: > 100 µM.

Consider `C=CCNS(=O)(=O)c1ncnc2[nH]cnc12`, for which the GI50 is inactive: > 100 µM.

With `O=C1C(Cl)=C(Cl)C(=O)N1c1ccccc1Cl`, the GI50 is inactive: > 100 µM.

As to `CC(C)C(O)(C(C)C)C(C)C`, the GI50 was inactive: > 100 µM.

In the case of `O=C(O)c1cc(O)nc(S)n1`, the GI50 is inactive: > 100 µM.

Consider `COc1c(C=O)c2c(c(OC)c1OC)-c1ccc(OC)c(=O)cc1[C@@H](NC(C)=O)CC2`, for which the GI50 was active: 0.321 µM.

On to `COc1ccc2cc(C(=O)NCCCNC(=O)c3ccc4cc(OC)ccc4c3)ccc2c1`, for which the GI50 is inactive: > 100 µM.

On to `N/C(=N\Nc1ccc(S(N)(=O)=O)cc1)c1cnccn1`, for which the GI50 is inactive: > 100 µM.

Take `CC(C)C(C)/C=C\C(C)C1CCC2C3=CC=C4CC(O)CCC4(C)C3CCC21C` (centres undefined): the GI50 is inactive: > 72.4 µM.

Consider `CC1CC(c2cccc3c2OCO3)=Nc2ccccc2S1` (centres undefined), for which the GI50 is inactive: > 100 µM.

With `O=C1C=CC2(C=C1)CCNC1=C2C(=O)c2ccccc2C1=O`, the GI50 was inactive: > 100 µM.

Take `COC(=O)C(NC(=O)C(CC(=O)OC(C)(C)C)NC(=O)OC(C)(C)C)C(O)c1ccccc1` (centres undefined): the GI50 was inactive: 34 µM.

For `Cc1nc(=O)[nH]c2s/c(=N/C3CCCCC3)n(C3CCCCC3)c(=O)c12`, the GI50 was inactive: > 100 µM.

For the compound `N/N=C(\C(=O)Nc1ccc([N+](=O)[O-])cc1)C(C1=Nc2cc([N+](=O)[O-])ccc2NC1)[N+](=O)[O-]` (centres undefined), the GI50 is inactive: > 100 µM.

With `Cc1cn(C2CC(n3cc(Cn4cc(F)c(=O)[nH]c4=O)nn3)C(CO)O2)c(=O)[nH]c1=O` (centres undefined), the GI50 was inactive: > 100 µM.

As to `Nc1ncc(Br)c(NCC2(CO)CCC2)n1`, the GI50 was inactive: > 100 µM.

In the case of `O=c1ssc2c1Nc1c(ssc1=O)S2`, the GI50 is inactive: 17 µM.

As for `C#CC(O)/C=C/C(O)CCCC(O)CC#CC(O)C#CC(O)CCCC(O)/C=C/CCCCCC(=O)CCCCCCCCCCCCCC(O)C(O)C#CC(=O)O` (centres undefined), the GI50 is inactive: 27.2 µM.

For the compound `C/C(=N\Nc1nc2cc(C)ccc2s1)c1ccccn1`, the GI50 is active: 0.662 µM.

Take `NC(=S)N/N=C1\C(=O)N(CCc2ccccc2)C(=O)C1C(=O)NCCc1ccccc1` (centres undefined): the GI50 is inactive: > 100 µM.

For `CN(C)CCC(=O)/C=C\c1ccccc1`, the GI50 was inactive: 31.3 µM.

`Cc1cccc(/C=N/NC(=S)N2CCCC2)n1`: the GI50 is active: 0.126 µM.

`O=S1(=O)c2ccccc2C(Nc2ccccc2)N1c1ccccc1` (centres undefined): the GI50 was inactive: > 100 µM.

For `C/C(=N\Nc1cc(CN2CCCC2)c(-c2ccc(Cl)cc2)nn1)C(=O)O`, the GI50 was inactive: > 100 µM.

With `COC(=O)C(Cc1nc2ccccc2nc1O)C(=O)C(=O)Nc1ccc([N+](=O)[O-])cc1[N+](=O)[O-]` (centres undefined), the GI50 was inactive: 35.3 µM.

On to `Cc1ccc(S(=O)(=O)n2c3c(c4ccccc42)CCN2C(=O)C(S(=O)(=O)c4ccccc4)=CCC32)cc1` (centres undefined), for which the GI50 was active: 0.0119 µM.

`COc1ccc2[nH]c3c(c2c1)[C@H](c1ccccc1)C[C@@H]1C(=O)N(c2ccccc2)C(=O)[C@H]31`: the GI50 was inactive: 91.2 µM.

Consider `CSC(Cc1ccc2c(c1)Sc1ccccc1O2)=[N+]1CCOCC1`, for which the GI50 is inactive: > 100 µM.

Regarding `CC1CC[C@@]2(OC1)O[C@H]1[C@H](O)[C@H]3[C@@H]4CC[C@H]5C[C@@H](OC6OC(CO)C(OC7OC(CO)C(O)C(OC8OCC(O)C(O)C8O)C7OC7OC(CO)C(O)C(O)C7OC7OC(CO)C(O)C(O)C7O)C(O)C6O)[C@H](O)C[C@]5(C)[C@H]4CC[C@]3(C)[C@H]1[C@@H]2C` (some centres undefined), the GI50 was inactive: > 10 µM.

For `Cc1nc2cccc([N+](=O)[O-])c2c(NCCCN(C)C)c1C`, the GI50 is inactive: 30 µM.

For the compound `CCCCC#COP(=O)(OCC)OCC`, the GI50 was inactive: > 100 µM.

As for `COc1cc2c(C)cc(O)cc2c2cc(O)c(C)cc12`, the GI50 is inactive: 12.4 µM.

With `NCCc1ccc2c(c1)C(=O)c1c(O)ccc(O)c1C2=O`, the GI50 is inactive: 5.65 µM.

With `CSc1nc(N)c(NC2OC(CO)C(O)C2O)c(=O)[nH]1` (centres undefined), the GI50 was inactive: > 100 µM.

With `N=c1n(CC(=O)NC23CC4CC(CC(C4)C2)C3)c2ccccc2n1CC(=O)NC12CC3CC(CC(C3)C1)C2`, the GI50 was inactive: 2.4 µM.

Consider `CCOC(=O)NC(=O)c1cn(CCCOC(=O)CCCCCCCCC(=O)OCCCn2cc(C(=O)NC(=O)OCC)c(=O)n(C)c2=O)c(=O)n(C)c1=O`, for which the GI50 is inactive: > 100 µM.

As to `COC(=O)c1ccccc1/N=C/c1ccc(N(CCC#N)S(=O)(=O)c2ccccc2)cc1`, the GI50 was inactive: > 100 µM.

As for `CCC(CCC(C)C1CCC2C3CC=C4CC(OC5OC(CO)C(O)C(O)C5O)CCC4(C)C3CCC12C)C(C)C` (centres undefined), the GI50 was inactive: > 100 µM.

In the case of `CC1CC(=O)c2c(ccc3c2C(=O)c2cccc(O)c2C3=O)C1` (centres undefined), the GI50 was inactive: 18.6 µM.

Regarding `COc1ccc(C(SCCO)(c2ccccc2)c2ccc(OC)cc2)cc1`, the GI50 was inactive: 3.37 µM.

Turning to `CN(C)c1nc(N(C)C)nc(N(C)CN(C)c2ccc(Cl)cc2)n1`, the GI50 was inactive: > 100 µM.

Regarding `COc1cccc(NC(=O)C(C)(C)C)c1C=O`, the GI50 was inactive: > 100 µM.

Turning to `CCOC(=O)C1C(c2ccco2)C2(C#N)C(=N)OC1(C)C2(C#N)C#N` (centres undefined), the GI50 was inactive: > 100 µM.

For `Nc1nnc(N)n1NC(=O)C(=O)Nc1ccc([N+](=O)[O-])cc1`, the GI50 was inactive: > 100 µM.

Turning to `COC(=O)NC(=O)c1cn(C2OC(CO)C(O)C2O)c(=O)[nH]c1=O` (centres undefined), the GI50 was inactive: > 100 µM.

In the case of `c1ccc2c(c1)Sc1ccccc1N2CCCN1c2ccccc2Sc2ccccc21`, the GI50 is inactive: > 100 µM.

As for `COC(=O)C1(C(=O)OC)CC2=C(S(=O)(=O)c3ccccc3)C[C@H](C#N)[C@H]2C1`, the GI50 is inactive: > 100 µM.

For `COc1ccc(/C=C/c2cc(O)cc(OC3OC(CO)C(O)C(O)C3O)c2)cc1O` (centres undefined), the GI50 was inactive: > 100 µM.

As to `Cn1c2ccc(F)cc2c2ccc3c(c21)C(=O)C=CC3=O`, the GI50 is inactive: 28.8 µM.

As for `COc1ccc2nc3cc(Cl)ccc3c(NCCC[N+](C)(C)CCCCCCCCCCCCCCCC[N+](C)(C)CCCNc3c4ccc(Cl)cc4nc4ccc(OC)cc34)c2c1`, the GI50 is inactive: 2.52 µM.

Take `O=[N+]([O-])C1(CO)COC2(OC1)c1ccccc1-c1ccccc12`: the GI50 is inactive: > 100 µM.

As to `CC(=O)OC12CC(C(F)(F)F)(C(F)(F)F)OC1(OC(C)=O)CC(C(F)(F)F)(C(F)(F)F)O2` (centres undefined), the GI50 is inactive: 1.94 µM.

Take `O=c1c2cnccc2cc2c3ccccc3ccn12`: the GI50 is inactive: 91.8 µM.

Regarding `N#Cc1c(-c2ccccc2)c(C#N)c(=O)n(NS(=O)(=O)c2ccccc2)c1O`, the GI50 was inactive: > 100 µM.

Regarding `COc1ccc(Nc2nnc(-c3nsc4ccccc34)s2)cc1`, the GI50 was inactive: 11.6 µM.

For the compound `Cc1ccccc1NC(=O)/C=N/O`, the GI50 is inactive: > 100 µM.

As to `COCN(CCC1=CCCCC1)C(=O)OC`, the GI50 was inactive: > 100 µM.

In the case of `O=C(CP(=O)(O)O)c1cccs1`, the GI50 is inactive: > 100 µM.

Regarding `CNc1ccc([S+]([O-])Nc2ccc(OC)cc2)cc1` (centres undefined), the GI50 was inactive: > 100 µM.

Regarding `Cc1csc2nc(-c3cccc([N+](=O)[O-])c3)c(/C=N/N=C(N)N)n12`, the GI50 was inactive: 1.57 µM.

As to `CC1=NN(c2nc(N)nc(/C(C#N)=C\C3COc4ccccc4C3=O)n2)C(C)(C)C1` (centres undefined), the GI50 was inactive: 38.1 µM.

As for `CC1(C)N=C(N)N=C(N)N1c1cccc(CSc2ccccc2)c1`, the GI50 is active: 0.285 µM.

Consider `O=c1cc(-c2ccccc2)oc2cc(Oc3nnnn3-c3ccccc3)ccc12`, for which the GI50 is inactive: 31.5 µM.

Consider `O=C(OCc1ccccc1)c1nc2ccccc2n1S(=O)(=O)c1ccccc1`, for which the GI50 was inactive: > 100 µM.

Consider `Nc1nc(=O)[nH]c2c1cnn2Cc1ccccc1`, for which the GI50 is inactive: > 100 µM.

On to `CCOC(=O)c1nc2ccccc2nc1Nc1ccc(Cl)c(Cl)c1`, for which the GI50 is inactive: 71.8 µM.

Regarding `O=[N+]([O-])c1cccc2nc3ccccc3c(NCCN(CCO)CCO)c12`, the GI50 was active: 0.00585 µM.

As for `[O-][N+]1=C(c2ccccc2)/C(=C2/C(c3ccccc3)=[N+]([O-])c3ccccc32)Cc2ccccc21`, the GI50 is inactive: 14.5 µM.

As for `COc1cc(/C=C2\N=C(c3ccccc3)N(c3nc4cc(C)c(C)cc4s3)C2=O)ccc1O`, the GI50 was inactive: 52 µM.

On to `N#CC(/C(CCCC(=O)Nc1cccc([N+](=O)[O-])c1)=N\NC(=O)c1c(O)ccc2ccccc12)c1nc2ccccc2s1` (centres undefined), for which the GI50 was inactive: 18.1 µM.

Turning to `CN(C)CC/C(=N\Nc1ccc(Cl)cc1)c1ccccc1`, the GI50 is inactive: 3.48 µM.

As for `Brc1ccc(N2C[N+](c3ccc(Br)cc3)=NC(c3ccccc3)=N2)cc1.[O-][Cl+3]([O-])([O-])[O-]`, the GI50 is inactive: 68.7 µM.

With `Clc1ccccc1C1=NN(c2ccccc2)C2c3cc(Br)ccc3OCC12` (centres undefined), the GI50 was inactive: > 100 µM.

As for `CC1OC(OC2C(OC(=O)[C@]34CCC(C)(C)CC3C3=CCC5[C@@]6(C)C[C@H](O)[C@H](OC7OC(COC8OC(CO)C(O)C(O)C8O)C(O)C(O)C7O)[C@@](C)(C(=O)O)C6CC[C@@]5(C)C3(C)CC4)OCC(O)C2O)C(O)C(O)C1OC1OCC(O)C(O)C1O` (some centres undefined), the GI50 was inactive: > 100 µM.

With `Nc1nc(O)c2nc(CNc3ccc(C(=O)NC(CCC(=O)O)C(=O)O)cc3)cnc2n1` (centres undefined), the GI50 is inactive: > 100 µM.

As for `Oc1cc(O)c2c(-c3c(O)c(-c4ccc(O)c(O)c4)[o+]c4cc(O)cc(O)c34)c(O)c(-c3ccc(O)c(O)c3)[o+]c2c1`, the GI50 is inactive: 33.4 µM.

For `COc1cc(OC)c(-c2cc(=O)c3c(OC)c(OC)c(OC)c(OC)c3o2)cc1OC`, the GI50 is inactive: > 100 µM.
